In all, about 370,000 compounds went through this assay and about 150 (0.041%) were called active. Inconclusive results, whose numbers are uncertain, are shown with a selection of clear calls. Calls come from the whole dose curve; as a rule, active = well fitted inhibition curve with a large enough effect; inconclusive = small, poorly fitted or top-dose-only effect; inactive = flat fitted curve, though single readings scatter. No potency is given beside an inconclusive call; the fits are too rough.
target: Beta-lactamase (Escherichia coli (strain K12)) (UniProt P00811); assay: qHTS Inhibitors of AmpC Beta-Lactamase (assay with detergent); conditions: AmpC hydrolysis of nitrocefin, absorbance 480 nm, 0.01% Triton; series mostly up to 114 µM; note: nearly all actives have a fitted effect of over 25% in size
Chain of UniProt P00811 (P00811 whole entry, looked up): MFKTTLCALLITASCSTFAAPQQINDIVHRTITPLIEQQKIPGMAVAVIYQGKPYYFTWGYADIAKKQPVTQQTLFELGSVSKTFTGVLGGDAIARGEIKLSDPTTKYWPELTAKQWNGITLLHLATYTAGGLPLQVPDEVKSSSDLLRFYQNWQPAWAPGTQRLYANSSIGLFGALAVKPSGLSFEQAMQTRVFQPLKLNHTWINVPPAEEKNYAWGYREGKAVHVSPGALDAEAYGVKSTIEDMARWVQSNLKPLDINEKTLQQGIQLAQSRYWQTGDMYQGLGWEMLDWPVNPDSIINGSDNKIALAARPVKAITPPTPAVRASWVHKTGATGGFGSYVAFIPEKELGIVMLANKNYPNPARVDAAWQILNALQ
Procedure, shortened: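 AmpC (5.3 nM in the dispensed reagent) in 20 mM phosphate pH 7.0 with 0.01% (detergent screen) or 0.0001% Triton X-100 was preincubated with compounds for 15 min at room temperature. Nitrocefin was then added from an 800 uM solution, and hydrolysis was followed at 480 nm.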
Potency is the fitted concentration of half-maximal effect; tags give direction and shape of the fitted curve.

| Compound | Potency |
| --- | --- |
| CC1Cc2ccccc2N1C(=O)CCn1c(=O)sc2ccccc21 (stereo not given) | inactive |
| Cc1ccc(NS(=O)(=O)c2ccc3c(c2)oc(=O)n3C)cc1F | inconclusive [inhibitor, full curve, poor fit] |
| CN(CCO)c1cc(N2CCCCC2)c2nonc2c1[N+](=O)[O-] | inactive |
| CCOc1ccc2nc(/N=C/c3nc(-c4ccc(Br)cc4)oc3O)sc2c1 | inconclusive [inhibitor, single point] |
| C[n+]1c2ccccc2nc2ccc(NCCO)cc21 | inactive |
| CCN1CCn2c1nc(N1CCOCC1)nc2=O | inconclusive [inhibitor, full curve] |
| CC(NC(=O)Cn1c(NCCO)nc2ccccc21)C1CC2CCC1C2 (stereo not given) | inactive |
| Cc1nc(N2CCC(C)CC2)c2oc3ccccc3c2n1 | inconclusive [inhibitor, full curve, poor fit] |
| CCCCNC(C(=O)Nc1ccc(Cl)c([N+](=O)[O-])c1)c1ccccc1 (stereo not given) | inconclusive [inhibitor, partial curve] |
| Cc1cc(C)c(CN2CCC(N3CCC(C(=O)NCC4CCCO4)CC3)CC2)cc1C (stereo not given) | inconclusive [inhibitor, full curve, poor fit] |
| Cc1cc(Oc2ccc(=O)n(C)n2)nc(Oc2ccc(=O)[nH]n2)n1 | inconclusive [inhibitor, full curve, poor fit] |
| Cc1cc(C(=O)N/N=C/c2ccccc2Br)no1 | inconclusive [inhibitor, partial curve] |
| CCC12CN(C(=O)c3ccco3)CC(CC)(CN(C(=O)c3ccco3)C1)C2=O | inactive |
| COc1ccc(OC)c2nc(-c3ccc4c(c3)OCO4)ccc12 | inactive |
| c1ccc(C(NCCNC(c2ccccc2)c2ccccc2)c2ccccc2)cc1 | inactive |
| COc1ccc(CNC(=O)c2ccc3nc(-c4ccc(F)cc4)c(-c4ccc(F)cc4)nc3c2)cc1 | inactive |
| CCC1(C)Cc2c(sc3nc(SC)n(-c4ccc(C)cc4)c(=O)c23)CO1 (stereo not given) | inactive |
| Cc1nnc(NC(=O)c2ccccc2)s1 | inactive |
| CC(OC(=O)c1cccc(NS(C)(=O)=O)c1)C(=O)Nc1ccc2c(c1)OCO2 (stereo not given) | inconclusive [inhibitor, full curve, poor fit] |
| O=C1CCCN1c1ccc(S(=O)(=O)N2CCC(c3ccccc3)CC2)cc1 | inconclusive [inhibitor, partial curve] |
| C=CCc1cccc(/C=N/NC(=O)CNc2cccc3ccccc23)c1O | inconclusive [inhibitor, partial curve, poor fit] |
| Cc1cccc(-n2nc(C)c(C(=O)Nc3cc(C)ccc3C)c2-n2cccc2)c1 | inactive |
| Clc1ccccc1Cn1c(/C=C/c2ccco2)nc2ccccc21 | inconclusive [inhibitor, full curve, poor fit] |

| Compound | Potency |
| --- | --- |
| Cc1ccc(C(=O)Nc2cc(Cl)ccc2N2CCCCC2)s1 | inconclusive [inhibitor, partial curve, poor fit] |
| O=c1c(O)cccc2cc(O)c(O)c(O)c12 | inconclusive [inhibitor, partial curve, poor fit] |
| Cc1ccc(C(C)C)c(OCC(O)CN2CCN(CCO)CC2)c1 (stereo not given) | inconclusive [inhibitor, partial curve, poor fit] |
| CCOC(=O)N1CCN(C(=O)C2c3cc(OC)c(OC)cc3C(=O)N3CCc4ccccc4C23)CC1 (stereo not given) | inconclusive [inhibitor, partial curve] |
| C/C(CC(=O)Nc1cc(C)ccn1)=N\NC(=O)C(=O)Nc1cccc(C)c1 | inactive |
| O=C(Oc1ccc(/C=N/NC(=O)c2ccccc2O)cc1)c1ccccc1 | inactive |
| Cc1cc(C)nc(N/N=C/c2ccco2)n1 | inactive |
| CC(=O)Nc1c(C)ccc(CNC(=O)COc2cc(C)ccc2C)c1C | inconclusive [inhibitor, single point] |
| CSc1ncccc1C(=O)Nc1nc2ccc(S(C)(=O)=O)cc2s1 | inactive |
| CCC(C)[C@H](NC(=O)c1cc2cc(Cl)ccc2n1C)C(=O)N1CCC[C@H]1C(=O)O (stereo not given in full) | inconclusive [inhibitor, full curve, poor fit] |
| Cc1cnc(NC(=O)CSc2nnc(-c3ccc(Cl)cc3Cl)n2N)s1 | inconclusive [inhibitor, full curve, poor fit] |
| CCCCNC(=O)c1cc2c(-c3ccc(Cl)cc3)nn(C)c2s1 | inconclusive [inhibitor, full curve, poor fit] |
| O=c1c2cc(Cl)ccc2nc(-c2ccccc2Cl)n1O | inconclusive [inhibitor, full curve, poor fit] |
| COc1ccc2oc(=O)c(C(=O)N3CCN(c4ccc(C)cc4)CC3)cc2c1 | inactive |
| Cc1cc(NC(=O)CSc2nnc(-c3ccc(O)cc3)o2)no1 | inactive |
| Cc1n[nH]c(=S)n(NC(=O)CC(=O)Nn2c(=S)[nH]nc(C)c2=O)c1=O | inconclusive [inhibitor, full curve, poor fit] |
| CCCOc1ccc(/C=N/NC(=O)C2CCCN2S(=O)(=O)c2ccc(Cl)cc2)cc1 (stereo not given) | inconclusive [inhibitor, partial curve] |
| CCC(=O)c1ccc(Oc2nc3c(c(=O)n(C)c(=O)n3C)n2CC)cc1 | inconclusive [inhibitor, full curve, poor fit] |
| CCOc1ccc(S(=O)(=O)NCCCN2CCCC2=O)cc1 | inactive |
| COc1ccccc1CC(=O)Nc1ccc(OC)c(OC)c1 | inconclusive [inhibitor, full curve, poor fit] |
| Cc1nc(-c2ccc(F)cc2)sc1CCNC(=O)C(=O)Nc1ccc2c(c1)OCCO2 | inconclusive [inhibitor, full curve, poor fit] |
| O=C1c2cccc3cccc(c23)C(=O)N1c1ccc(O)cc1 | inconclusive [inhibitor, partial curve, poor fit] |

Reference: PubChem BioAssay AID485294 (National Center for Advancing Translational Sciences (NCATS), 2010)
